In patent US20160038588A1, “Myostatin Antagonism in Human Subjects” (AMGEN INC., priority 2013, published 2016):

Molecular target: T1, recombinant mature myostatin (human, produced in E. coli) (human) (UniProt O14793)
T1 sequence (looked up): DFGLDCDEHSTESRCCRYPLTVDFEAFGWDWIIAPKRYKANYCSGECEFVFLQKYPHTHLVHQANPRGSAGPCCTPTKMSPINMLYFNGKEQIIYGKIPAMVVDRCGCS
Experiment: cell-based or functional assay

Row | Binder | IC50, C2C12 pMARE-luc assay [nM]
1 | mTN8-19-4 peptibody (Fc fusion) [here human IgG1 Fc without letters]GGGGGAQMITQGQCTRWPWMCPPQPSGLE | 16.7
2 | mTN8-19-6 peptibody (Fc fusion) [here human IgG1 Fc without letters]GGGGGAQGVNQGQCTRWRWMCPPNGWELE | 17.3
3 | mTN8-19-11 peptibody (Fc fusion) [here human IgG1 Fc without letters]GGGGGAQIYPHDQCTRWPWMCPPQPYPLE | 28.7
4 | mTN8-19-12 peptibody (Fc fusion) [here human IgG1 Fc without letters]GGGGGAQSYWQGQCTRWPWMCPPQWRGLE | 980
5 | mTN8-19-13 peptibody (Fc fusion) [here human IgG1 Fc without letters]GGGGGAQMWQQGHCTRWPWMCPPQGWGLE | 20
6 | mTN8-19-16 peptibody (Fc fusion) [here human IgG1 Fc without letters]GGGGGAQYQTQGLCTRWPWMCPPQSQRLE | 4.65
7 | mTN8-19-23 peptibody (Fc fusion) [here human IgG1 Fc without letters]GGGGGAQPGAHDHCTRWPWMCPPQSRYLE | 6.58
8 | mTN8-19-28 peptibody (Fc fusion) [here human IgG1 Fc without letters]GGGGGAQSGPQGHCTRWPWMCAPQGWFLE | 4.39
9 | mTN8-19-29 peptibody (Fc fusion) [here human IgG1 Fc without letters]GGGGGAQTLVQGHCTRWPWMCPPQRWVLE | 6.36
10 | mTN8Con6-3 peptibody (Fc fusion) [here human IgG1 Fc without letters]GGGGGAQWTGWYQCYGGHLWCYDLRRKLE | 86.8
11 | mTN8Con6-5 peptibody (Fc fusion) [here human IgG1 Fc without letters]GGGGGAQESRWYPCYEGHLWCFDLTETLE | 2380
12 | Myostatin-TN12-34 peptibody (Fc fusion) MAHWCEQGPWRYGNICMAYGGGGG[here human IgG1 Fc without letters]GGGGGAHWCEQGPWRYGNICMAY | 30
13 | mTN8-19-21(-LE) peptibody (Fc fusion) [here human IgG1 Fc without letters]GGGGGAQSEYQGLCTRWPWMCPPQGWK | 2.49
14 | mTN8-19-33(-LE) peptibody (Fc fusion) [here human IgG1 Fc without letters]GGGGGAQPESQGHCTRWPWMCPPQGWG | 1.81
15 | Myostatin-Linear-20 peptibody (Fc fusion) MYREMSMLEGLLDVLERLQHYGGGGG[here human IgG1 Fc without letters] | 11
16 | mL2-7 peptibody (Fc fusion) MGAQRMEMLESLFELLKEIVPMSKAGLEGGGGG[here human IgG1 Fc without letters] | 90.2
17 | mL2-9 peptibody (Fc fusion) MGAQQMELLDSLFELLKEIVPKSQPALEGGGGG[here human IgG1 Fc without letters] | 106
18 | mL15-7 peptibody (Fc fusion) [here human IgG1 Fc without letters]GGGGGAQQVDSLQQVLLWLEHKLALGPQVLE | 32.8
19 | mL15-9 peptibody (Fc fusion) [here human IgG1 Fc without letters]GGGGGAQQIEMLESLLDLLRDMVPMSNAFLE | 354
20 | mL20-2 peptibody (Fc fusion) [here human IgG1 Fc without letters]GGGGGAQTQRDMSMLDGLLEVLDQLRQQRLE | 123
21 | mL20-3 peptibody (Fc fusion) [here human IgG1 Fc without letters]GGGGGAQTSRDMSLLWELLEELDRLGHQRLE | 158
22 | mL20-4 peptibody (Fc fusion) [here human IgG1 Fc without letters]GGGGGAQMQHDMSMLYGLVELLESLGHQILE | 160
